Where a chain is given by its changes, count along the chain named. This is one part of the list.
T1: RBFOX1 RRM RbFoxmut (Fox-RRM*) (Homo sapiens, UniProt Q9NWB1 109-208, R118D;E147R;N151S;E152T)
T1 sequence: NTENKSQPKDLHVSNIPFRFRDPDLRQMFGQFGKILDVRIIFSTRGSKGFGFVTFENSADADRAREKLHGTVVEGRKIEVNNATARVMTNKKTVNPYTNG

B1: GCUCUUA (DNA:RNA)
RNA: GGGAGACCGGAAUUCAGAUUGUCCGCUCUUAUUAAAUCCCGUCGUAGCCACCA
DNA 1: CAATCTGAATTCCGGTCTCCC
DNA 2: TGGTGGCTACGACGGGATT
B2: UAGAACA (DNA:RNA)
RNA: B1 RNA with G25U, C26A, U27G, C28A, U29A, U30C
DNA 1: CAATCTGAATTCCGGTCTCCC
DNA 2: TGGTGGCTACGACGGGATT
B3: UCCCCAU (DNA:RNA)
RNA: B1 RNA with G25U, U27C, U29C, U30A, A31U
DNA 1: CAATCTGAATTCCGGTCTCCC
DNA 2: TGGTGGCTACGACGGGATT
B4: CUCCGUG (DNA:RNA)
RNA: B1 RNA with G25C, C26U, U27C, U29G, A31G
DNA 1: CAATCTGAATTCCGGTCTCCC
DNA 2: TGGTGGCTACGACGGGATT
B5: AGCGUGC (DNA:RNA)
RNA: B1 RNA with G25A, C26G, U27C, C28G, U30G, A31C
DNA 1: CAATCTGAATTCCGGTCTCCC
DNA 2: TGGTGGCTACGACGGGATT
B6: UCCUCGU (DNA:RNA)
RNA: B1 RNA with G25U, U27C, C28U, U29C, U30G, A31U
DNA 1: CAATCTGAATTCCGGTCTCCC
DNA 2: TGGTGGCTACGACGGGATT
B7: CAAUAGU (DNA:RNA)
RNA: GGGAGACCGGAAUUCAGAUUGUCCCAAUAGUUUAAAUCCCGUCGUAGCCACCA
DNA 1: CAATCTGAATTCCGGTCTCCC
DNA 2: TGGTGGCTACGACGGGATT
B8: GAUGUUA (DNA:RNA)
RNA: B1 RNA with C26A, C28G
DNA 1: CAATCTGAATTCCGGTCTCCC
DNA 2: TGGTGGCTACGACGGGATT
B9: UUCGGUA (DNA:RNA)
RNA: B1 RNA with G25U, C26U, U27C, C28G, U29G
DNA 1: CAATCTGAATTCCGGTCTCCC
DNA 2: TGGTGGCTACGACGGGATT
B10: GACGACA (DNA:RNA)
RNA: B7 RNA with C25G, A27C, U28G, G30C, U31A
DNA 1: CAATCTGAATTCCGGTCTCCC
DNA 2: TGGTGGCTACGACGGGATT
B11: CAUUUUG (DNA:RNA)
RNA: B7 RNA with A27U, A29U, G30U, U31G
DNA 1: CAATCTGAATTCCGGTCTCCC
DNA 2: TGGTGGCTACGACGGGATT
B12: GCCCCCA (DNA:RNA)
RNA: B1 RNA with U27C, U29C, U30C
DNA 1: CAATCTGAATTCCGGTCTCCC
DNA 2: TGGTGGCTACGACGGGATT
B13: UAAACGA (DNA:RNA)
RNA: B7 RNA with C25U, U28A, A29C, U31A
DNA 1: CAATCTGAATTCCGGTCTCCC
DNA 2: TGGTGGCTACGACGGGATT
B14: GUCGCGC (DNA:RNA)
RNA: B7 RNA with C25G, A26U, A27C, U28G, A29C, U31C
DNA 1: CAATCTGAATTCCGGTCTCCC
DNA 2: TGGTGGCTACGACGGGATT
B15: UUAUAUG (DNA:RNA)
RNA: B7 RNA with C25U, A26U, G30U, U31G
DNA 1: CAATCTGAATTCCGGTCTCCC
DNA 2: TGGTGGCTACGACGGGATT
B16: GCAGUCC (DNA:RNA)
RNA: B1 RNA with U27A, C28G, U30C, A31C
DNA 1: CAATCTGAATTCCGGTCTCCC
DNA 2: TGGTGGCTACGACGGGATT
B17: UCGCCCC (DNA:RNA)
RNA: B1 RNA with G25U, U27G, U29C, U30C, A31C
DNA 1: CAATCTGAATTCCGGTCTCCC
DNA 2: TGGTGGCTACGACGGGATT
B18: CCGAUUU (DNA:RNA)
RNA: B1 RNA with G25C, U27G, C28A, A31U
DNA 1: CAATCTGAATTCCGGTCTCCC
DNA 2: TGGTGGCTACGACGGGATT
B19: GAGUACU (DNA:RNA)
RNA: B7 RNA with C25G, A27G, G30C
DNA 1: CAATCTGAATTCCGGTCTCCC
DNA 2: TGGTGGCTACGACGGGATT
B20: CCUUGUA (DNA:RNA)
RNA: B1 RNA with G25C, C28U, U29G
DNA 1: CAATCTGAATTCCGGTCTCCC
DNA 2: TGGTGGCTACGACGGGATT
B21: UCUAGUU (DNA:RNA)
RNA: B1 RNA with G25U, C28A, U29G, A31U
DNA 1: CAATCTGAATTCCGGTCTCCC
DNA 2: TGGTGGCTACGACGGGATT
B22: GGCCCGU (DNA:RNA)
RNA: B7 RNA with C25G, A26G, A27C, U28C, A29C
DNA 1: CAATCTGAATTCCGGTCTCCC
DNA 2: TGGTGGCTACGACGGGATT
B23: ACGGACA (DNA:RNA)
RNA: B1 RNA with G25A, U27G, C28G, U29A, U30C
DNA 1: CAATCTGAATTCCGGTCTCCC
DNA 2: TGGTGGCTACGACGGGATT
B24: CCUUAUA (DNA:RNA)
RNA: B1 RNA with G25C, C28U, U29A
DNA 1: CAATCTGAATTCCGGTCTCCC
DNA 2: TGGTGGCTACGACGGGATT
B25: UGCAGUC (DNA:RNA)
RNA: B1 RNA with G25U, C26G, U27C, C28A, U29G, A31C
DNA 1: CAATCTGAATTCCGGTCTCCC
DNA 2: TGGTGGCTACGACGGGATT
B26: CGAUAUG (DNA:RNA)
RNA: B7 RNA with A26G, G30U, U31G
DNA 1: CAATCTGAATTCCGGTCTCCC
DNA 2: TGGTGGCTACGACGGGATT
B27: AAAGCAG (DNA:RNA)
RNA: B7 RNA with C25A, U28G, A29C, G30A, U31G
DNA 1: CAATCTGAATTCCGGTCTCCC
DNA 2: TGGTGGCTACGACGGGATT
B28: GUGUUCU (DNA:RNA)
RNA: B7 RNA with C25G, A26U, A27G, A29U, G30C
DNA 1: CAATCTGAATTCCGGTCTCCC
DNA 2: TGGTGGCTACGACGGGATT
B29: CCGUUCU (DNA:RNA)
RNA: B7 RNA with A26C, A27G, A29U, G30C
DNA 1: CAATCTGAATTCCGGTCTCCC
DNA 2: TGGTGGCTACGACGGGATT
B30: ACGAAUA (DNA:RNA)
RNA: B1 RNA with G25A, U27G, C28A, U29A
DNA 1: CAATCTGAATTCCGGTCTCCC
DNA 2: TGGTGGCTACGACGGGATT
B31: CGUAGUU (DNA:RNA)
RNA: B7 RNA with A26G, A27U, U28A, A29G, G30U
DNA 1: CAATCTGAATTCCGGTCTCCC
DNA 2: TGGTGGCTACGACGGGATT

biological target: T1, RBFOX1 RRM RbFoxmut (Fox-RRM*); experiment: EMSA; HiTS-Eq, 1 nM pool, 10 min; buffer printed only for the single-RNA assays: 10 mM Tris pH 7.5, 150 mM NaCl, 3.4 mM EDTA, 0.001% NP-40, 30 C; conditions: tags: His6 N-terminal (pET28a); label: 5' 32P
Method in brief: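 A pool of RNA with 7 randomized nucleotides, 5′-radiolabelled and with DNA-annealed flanks, was equilibrated at 1 nM for 10 min in 50 µL with purified RbFox RRM, wild type or mutant, across increasing protein concentrations. Free RNA was separated by 8% native PAGE, excised, reverse-transcribed, barcoded by PCR and sequenced. Relative association constants were obtained from read-count changes of each RNA species versus the control reaction and normalised to the cognate motif.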

Binder	binding signal
B1	0.0731 KA relative to UGCAUGU
B2	0.0442 KA relative to UGCAUGU
B3	0.0866 KA relative to UGCAUGU
B4	0.105 KA relative to UGCAUGU
B5	0.131 KA relative to UGCAUGU
B6	0.124 KA relative to UGCAUGU
B7	0.103 KA relative to UGCAUGU
B8	0.129 KA relative to UGCAUGU
B9	0.0815 KA relative to UGCAUGU
B10	0.0517 KA relative to UGCAUGU
B11	0.13 KA relative to UGCAUGU
B12	0.0573 KA relative to UGCAUGU
B13	0.036 KA relative to UGCAUGU
B14	0.123 KA relative to UGCAUGU
B15	0.148 KA relative to UGCAUGU
B16	0.0533 KA relative to UGCAUGU

Binder	binding signal
B17	0.07 KA relative to UGCAUGU
B18	0.0707 KA relative to UGCAUGU
B19	0.0757 KA relative to UGCAUGU
B20	0.206 KA relative to UGCAUGU
B21	0.109 KA relative to UGCAUGU
B22	0.133 KA relative to UGCAUGU
B23	0.0545 KA relative to UGCAUGU
B24	0.136 KA relative to UGCAUGU
B25	0.115 KA relative to UGCAUGU
B26	0.159 KA relative to UGCAUGU
B27	0.0873 KA relative to UGCAUGU
B28	0.0714 KA relative to UGCAUGU
B29	0.0688 KA relative to UGCAUGU
B30	0.127 KA relative to UGCAUGU
B31	0.141 KA relative to UGCAUGU

From PMC9911399, “Two distinct binding modes provide the RNA-binding protein RbFox with extraordinary sequence specificity”
